# This is one part of the list.
# Assays:
# HSkMC = human skeletal muscle cells; assay: cytotoxicity call (relative viability < 0.9); conditions: 10 µM
# HepG2 = assay: cytotoxicity call (relative viability < 0.9); conditions: 10 µM
# S. aureus RN4220 = assay: growth inhibition call (relative growth <= 0.2); conditions: 50 µM
SMILES,cytotoxicity call (HSkMC),cytotoxicity call (HepG2),growth inhibition call (S. aureus RN4220)
C[C@H](CO)N1C[C@H](C)[C@@H](CN(C)Cc2ccc(Cl)c(Cl)c2)OCCCC[C@H](C)Oc2ccc(NS(=O)(=O)c3cn(C)cn3)cc2C1=O,inactive,inactive,inactive
C[C@H](CO)N1C[C@H](C)[C@@H](CN(C)Cc2ccc(-c3ccccc3)cc2)Oc2c(NC(=O)Nc3ccc4c(c3)OCO4)cccc2C1=O,inactive,inactive,inactive
COc1ccc(NC(=O)N(C)C[C@H]2Oc3c(NS(C)(=O)=O)cccc3C(=O)N([C@H](C)CO)C[C@@H]2C)cc1,inactive,inactive,inactive
Cl.O=C(c1ccc(OCCN2CCCCC2)cc1)c1c(-c2ccc(O)cc2)sc2cc(O)ccc12,inactive,active,inactive
NCCCN.O=C(O)C(O)C(O)C(=O)O (centres undefined),inactive,inactive,inactive
C[C@@H]1CCCCO[C@H](CN(C)C(=O)C2CCCCC2)[C@H](C)CN([C@H](C)CO)C(=O)c2cc(NC(=O)C3CCCCC3)ccc2O1,inactive,inactive,inactive
C[C@@H]1CN([C@H](C)CO)C(=O)c2cc(NC(=O)Nc3cccc4ccccc34)ccc2O[C@@H](C)CCCCO[C@@H]1CN(C)Cc1ccc2c(c1)OCO2,active,active,inactive
COc1ccc(S(=O)(=O)N(C)C[C@H]2Oc3ccc(NC(=O)CCN4CCOCC4)cc3C(=O)N([C@@H](C)CO)C[C@H]2C)cc1,inactive,inactive,inactive
O=C(NCc1ccc(S(=O)(=O)N2CCOCC2)s1)c1cccnc1C(=O)N1CCOCC1,inactive,inactive,inactive
CC(C)=CCC1=C(O)C(=O)c2ccccc2C1=O,inactive,inactive,inactive
COc1ccc(CN(CCN(C)C)c2ccccn2)cc1.O=C(O)C=CC(=O)O,inactive,inactive,inactive
C[C@@H]1CN([C@H](C)CO)C(=O)Cc2cc(NC(=O)C3CCCCC3)ccc2O[C@@H]1CN(C)Cc1ccc(C(F)(F)F)cc1,inactive,active,inactive
C[C@H]1CCCCO[C@@H](CN(C)CC2CCCCC2)[C@@H](C)CN([C@@H](C)CO)C(=O)c2cc(NC(=O)CCC(F)(F)F)ccc2O1,inactive,inactive,inactive
C[C@@H]1CN([C@@H](C)CO)C(=O)c2cc(/C=C/c3ccccc3)cnc2O[C@H]1CN(C)C(=O)C1CCOCC1,inactive,inactive,inactive
C[C@@H]1CCCCO[C@@H](CN(C)C(=O)Nc2ccc3c(c2)OCO3)[C@@H](C)CN([C@H](C)CO)C(=O)c2cc(NC(=O)Cc3ccccc3)ccc2O1,inactive,inactive,inactive
C[C@H](CO)N1C[C@H](C)[C@H](CN(C)S(=O)(=O)c2cn(C)cn2)Oc2ccc(NS(C)(=O)=O)cc2C1=O,inactive,inactive,inactive
COc1ccc(NC(=O)Nc2ccc3c(c2)C(=O)N([C@@H](C)CO)C[C@@H](C)[C@H](CN(C)C(=O)Nc2ccccc2)OCCCC[C@@H](C)O3)cc1,inactive,inactive,inactive
Fc1ccccc1-c1nc2ccn(Cc3ccc(-c4ccc(C(F)(F)F)cc4C(F)(F)F)nn3)cc-2n1,active,active,inactive
O=C(O)CNC(=O)c1[nH]nc2ccccc12,inactive,inactive,inactive
Cc1ccc(OC(=O)N(C)C[C@H]2OCc3ccccc3-c3ccccc3C(=O)N([C@@H](C)CO)C[C@H]2C)cc1,inactive,inactive,inactive
C[C@H]1CN([C@@H](C)CO)C(=O)c2cccc(NC(=O)Nc3cccc4ccccc34)c2O[C@H]1CN(C)Cc1ccc(Oc2ccccc2)cc1,inactive,active,inactive
CNC(=O)C[C@@H]1CC[C@H]2[C@@H](COC[C@@H](O)CN2C(=O)Nc2ccc3c(c2)OCO3)O1,inactive,inactive,inactive
Cc1noc(C)c1NC(=O)Nc1ccc2c(c1)CC(=O)N([C@@H](C)CO)C[C@H](C)[C@H](CN(C)Cc1ccc(C(=O)Nc3ccccc3N)cc1)O2,inactive,inactive,inactive
C[C@H]1CN([C@@H](C)CO)C(=O)c2cc(NC(=O)CCC(F)(F)F)ccc2O[C@@H]1CN(C)C(=O)Nc1cccc2ccccc12,inactive,inactive,inactive
COc1cccc(S(=O)(=O)N2C[C@@H](O)COC[C@@H]3O[C@H](CC(=O)N4CCN(c5ccccc5)CC4)CC[C@H]32)c1,inactive,inactive,inactive
CO[C@@H](C(=O)N(C)C[C@@H]1OCc2ccccc2-c2c(n(C)c3ccccc23)C(=O)N([C@@H](C)CO)C[C@H]1C)c1ccccc1,inactive,inactive,inactive
C[C@@H]1CCCCO[C@@H](CN(C)C(=O)NC2CCCCC2)[C@H](C)CN([C@@H](C)CO)C(=O)c2cc(NC(=O)Nc3ccccc3)ccc2O1,inactive,inactive,inactive
O=C(O)/C=C/C(=O)N1CCN(C(=O)/C=C/C(=O)O)CC1,inactive,inactive,inactive
